{"source": "PubChem BioAssay AID1030", "about": "(National Center for Advancing Translational Sciences (NCATS), 2008)", "note": "Values joined by “and” are separate entries in the source; they are usually repeats but may differ in a detail not shown here. Identical values can stand only once. The whole screen tested about 220,000 compounds, of which about 16,000 (7.3%) were called active. Inconclusive means that the source gave no clear call. Such entries were picked first, then a sample of the others. Calls follow the shape of the dose curve; as a rule, active = well fitted inhibition curve with a large enough effect (not every such curve was filed as active); inconclusive = small, poorly fitted or top-dose-only effect, or another doubt; inactive = no such curve, though single readings can be large or run the other way. Potencies of inconclusive entries are doubtful fits and often do not repeat. Potency is read from the fitted curve at half-maximal effect; tags tell the direction and shape of the fitted curve.", "data": [{"biological_target": "Aldehyde dehydrogenase 1A1 (Homo sapiens) (UniProt P00352)", "sequence (P00352 whole entry, looked up)": "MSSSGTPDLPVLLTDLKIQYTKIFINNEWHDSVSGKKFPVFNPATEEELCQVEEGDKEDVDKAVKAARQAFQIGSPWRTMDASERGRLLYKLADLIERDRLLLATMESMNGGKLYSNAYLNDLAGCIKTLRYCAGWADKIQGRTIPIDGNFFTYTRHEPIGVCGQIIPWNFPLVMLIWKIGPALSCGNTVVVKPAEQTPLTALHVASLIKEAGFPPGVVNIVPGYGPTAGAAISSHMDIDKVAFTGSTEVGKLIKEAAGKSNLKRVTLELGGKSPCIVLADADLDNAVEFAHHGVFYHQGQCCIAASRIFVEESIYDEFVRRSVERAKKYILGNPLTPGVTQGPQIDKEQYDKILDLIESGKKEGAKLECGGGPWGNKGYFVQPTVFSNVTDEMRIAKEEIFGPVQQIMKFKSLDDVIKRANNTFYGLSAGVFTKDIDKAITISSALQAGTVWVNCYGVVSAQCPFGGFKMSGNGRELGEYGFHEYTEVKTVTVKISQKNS", "assay": "qHTS Assay for Inhibitors of Aldehyde Dehydrogenase 1 (ALDH1A1);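 as to activity, negative = inhibition: plate controls were no enzyme wells and a reference inhibitor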", "settings": "Purified ALDH1A1, NADH fluorescence, propionaldehyde substrate; series mostly up to 75.3 µM", "values": [{"smiles": "NC(=[SH+])N=N/C=C1/C=CC=CN1.O=S(=O)(O)O.[Fe]", "Potency": "inconclusive: 6.31 µM [inhibitor, single point]"}, {"smiles": "COc1ccc(N2C(=O)C3CCCN3C2c2ccccc2OC)cc1", "note": "(stereo unspecified)", "Potency": "inconclusive: 28.2 µM [inhibitor, partial curve]"}, {"smiles": "COc1cc(CN(C(=S)NCC(=O)NC2CC2)C2CCCC2)cc(OC)c1OC", "Potency": "inactive"}, {"smiles": "O=S(=O)(c1ccc(Cl)nc1)N1CCN(Cc2ccc3c(c2)OCO3)CC1", "Potency": "active: 14.1 µM"}, {"smiles": "CN(/N=C/c1ccc(O)cc1O)c1nc(-c2ccccc2)cc(-c2ccccc2)n1", "Potency": "inactive"}, {"smiles": "CC(=O)C1=C(O)C(=O)N(Cc2ccccc2)C1c1ccco1", "note": "(stereo unspecified)", "Potency": "inconclusive: 44.7 µM [inhibitor, single point]"}, {"smiles": "Cc1ccc(SC(CC(=O)c2ccc(C(C)(C)C)cc2)C(=O)O)cc1", "note": "(stereo unspecified)", "Potency": "active: 0.199 µM"}, {"smiles": "O=C(NC(=S)Nc1ccc2cn[nH]c2c1)c1ccccc1", "Potency": "inconclusive: 28.2 µM [inhibitor, single point]"}, {"smiles": "O=C(CSc1nc2c(c(C(F)(F)F)n1)CCc1ccccc1-2)NCc1ccccc1", "Potency": "inconclusive: 25.1 µM [inhibitor, single point]"}, {"smiles": "COc1ccc(/C=C/C=N/NC(=O)COc2ccc(OC)cc2)cc1", "Potency": "inactive"}, {"smiles": "O=C(COC(=O)CCSc1ccccc1Cl)NCc1ccco1", "Potency": "inactive"}, {"smiles": "CC(=O)Oc1c(S(=O)(=O)c2ccc(C)cc2)c(C)nn1-c1ccccc1", "Potency": "inconclusive: 39.8 µM [inhibitor, single point]"}, {"smiles": "CC1CCN(C(C(=O)NC2CCCCC2)c2cc3c(cc2[N+](=O)[O-])OCO3)CC1", "note": "(stereo unspecified)", "Potency": "inconclusive: 39.8 µM [inhibitor, single point]"}, {"smiles": "CCN(CC)S(=O)(=O)c1ccc(C)c(NC(=O)/C=C/c2cccs2)c1", "Potency": "active: 0.708 µM"}, {"smiles": "O=C1CSC(=S)N1c1cccnc1", "Potency": "inconclusive: 25.1 µM [inhibitor, partial curve]"}, {"smiles": "C=CCOc1ccc(/C=N/NC(=O)C(C)Sc2ccccn2)cc1OCC", "note": "(stereo unspecified)", "Potency": "inconclusive: 39.8 µM [inhibitor, single point]"}, {"smiles": "COC(=O)c1ccc2c(=O)n(CCCCCC(=O)NCCNC(C)=O)c(=O)[nH]c2c1", "Potency": "inconclusive: 39.8 µM [inhibitor, single point]"}, {"smiles": "O=C(Nc1nc(-c2ccco2)cs1)c1ccccc1", "Potency": "inconclusive: 35.5 µM [inhibitor, single point]"}, {"smiles": "CSc1ccccc1NC(=O)CN(C)CC(=O)Nc1cc(C)ccc1C", "Potency": "inactive"}, {"smiles": "COc1ccc(OCC2CC3C(CCC(C)C3c3ccc(Br)cc3)C(=O)O2)cc1", "note": "(stereo unspecified)", "activity, negative = inhibition": "inactive: -0.0484% [at 13.5 µM]"}, {"smiles": "ON/C=N/C(=S)Nc1ncc(C(F)(F)F)cc1Cl", "Potency": "inconclusive: 39.8 µM [inhibitor, single point]"}, {"smiles": "COC(=O)C1=C(C(=O)OC)SC(=C2C(=S)C(C)(C)N(C(=O)C(C)C)c3ccccc32)S1", "Potency": "inactive"}, {"smiles": "c1ccc(-n2ncc3c(NCCCN4CCOCC4)ncnc32)cc1", "Potency": "inconclusive: 25.1 µM [inhibitor, partial curve]"}, {"smiles": "CCOC(=O)C1CCN(C(=O)CC(NS(=O)(=O)c2ccc(OC)cc2)C(C)C)CC1", "note": "(stereo unspecified)", "Potency": "inactive"}, {"smiles": "NC(=O)C1CCN(C2CC(=O)N(c3cccc(F)c3)C2=O)CC1", "note": "(stereo unspecified)", "Potency": "active: 22.4 µM"}, {"smiles": "CCOC(=O)C1=C(CC)Nc2ccccc2N=C1NC(=O)c1ccc(S(=O)(=O)N(C)C)cc1", "Potency": "inconclusive: 10 µM [inhibitor, partial curve]"}, {"smiles": "CC(=O)NCCn1c(SCc2cc(=O)n3cc(Cl)ccc3n2)nc2ccccc2c1=O", "Potency": "inconclusive: 31.6 µM [inhibitor, partial curve]"}, {"smiles": "COc1ccc(N2CCN(C(=O)CCNS(=O)(=O)c3ccc(Br)s3)CC2)cc1", "Potency": "inconclusive: 39.8 µM [inhibitor, single point]"}, {"smiles": "O=C(CSc1nc2ccccc2o1)N1CCCC1", "Potency": "inactive"}, {"smiles": "O=C(CCCSc1nc2ccccc2c(=O)[nH]1)c1ccc(F)cc1", "Potency": "inconclusive: 39.8 µM [inhibitor, single point]"}, {"smiles": "COc1cc2c(cc1NC(=O)c1ccc(C(C)(C)C)cc1)CCCC2", "Potency": "inconclusive: 28.2 µM [inhibitor, partial curve]"}, {"smiles": "COCCNC(=S)N/N=C(\\C)c1cccc(OC)c1", "Potency": "inactive"}, {"smiles": "CCOC(=O)c1cc2sc(C)cc2n1CC(=O)NCCc1ccccc1", "Potency": "inconclusive: 25.1 µM [inhibitor, partial curve]"}, {"smiles": "O=C(NNc1nc2c(F)cccc2s1)c1cc(=O)c2ccccc2o1", "Potency": "inactive"}, {"smiles": "CCCCNc1nc(-c2ccccc2)cc(C(F)(F)F)c1C(N)=O", "Potency": "inconclusive: 31.6 µM [inhibitor, partial curve]"}, {"smiles": "CC(=O)NC1=NC(=O)/C(=C/c2cc(C)n(-c3cccc(C(=O)O)c3)c2C)S1", "Potency": "inactive"}, {"smiles": "CN1CCN(C2=Cc3ccccc3Sc3cc(F)c(Cl)cc32)CC1", "Potency": "active: 5.62 µM"}, {"smiles": "COc1cc(OC)c2c(-c3cccc(-c4ccc(C#N)cc4)c3)cc(=O)oc2c1", "Potency": "inconclusive: 35.5 µM [inhibitor, partial curve]"}, {"smiles": "O=C(O)c1cccc(N/N=C/c2ccc(-c3ccccc3)cc2)c1", "Potency": "inconclusive: 39.8 µM [inhibitor, single point]"}, {"smiles": "Cc1[nH]nc(SCC(=O)NCCc2ccccc2)c1[N+](=O)[O-]", "Potency": "inactive"}, {"smiles": "CCOC(=O)C1CCCN(Cc2c(Cl)cccc2Cl)C1", "note": "(stereo unspecified)", "Potency": "inconclusive: 39.8 µM [inhibitor, single point]"}, {"smiles": "Cc1ccc2[nH]c(O)c(N=O)c2c1", "Potency": "active: 31.6 µM"}, {"smiles": "CCc1ccc(C(=O)c2oc3nc(C)cc(C)c3c2N)cc1", "Potency": "inconclusive: 20 µM [inhibitor, partial curve]"}, {"smiles": "O=C(CC1C(=O)NCCN1Cc1ccc(-c2ccccc2)cc1)NCc1ccncc1", "note": "(stereo unspecified)", "Potency": "inconclusive: 35.5 µM [inhibitor, single point]"}, {"smiles": "Cc1ccc(C(=O)NC(=S)Nc2ccccc2N2CCCC2)cc1[N+](=O)[O-]", "Potency": "active: 20 µM"}, {"smiles": "COc1cccc2c1OC1(C)CC2NC(=O)N1c1cccc(C(=O)Nc2ccc3c(c2)OCCO3)c1", "note": "(stereo unspecified)", "Potency": "inconclusive: 28.2 µM [inhibitor, single point]"}, {"smiles": "Cc1ccc(Cl)cc1NC(=O)c1cnn2c1NC(c1ccco1)CC2C(F)(F)F", "note": "(stereo unspecified)", "Potency": "inconclusive: 39.8 µM [inhibitor, single point]"}, {"smiles": "O=C(CCn1c(=S)[nH]c2cc3c(cc2c1=O)OCO3)N1CCc2ccccc2C1", "Potency": "inconclusive: 39.8 µM [inhibitor, partial curve, poor fit]"}, {"smiles": "Nc1ccc(O)c2c1C(=O)c1ccccc1C2=O", "Potency": "inactive"}, {"smiles": "CC1CCN(S(=O)(=O)c2ccc(C(=O)NNC(=O)C3CC3)cc2)CC1", "Potency": "inactive"}, {"smiles": "CC(=O)c1ccc(-c2ccc(/C=C(/Sc3n[nH]c(C)n3)C(=O)O)o2)cc1", "Potency": "inactive"}, {"smiles": "COc1ccc(-c2ncccc2OC(=O)C23CC4CC(CC(C4)C2)C3)cc1OC", "Potency": "inconclusive: 25.1 µM [inhibitor, partial curve]"}, {"smiles": "CCCCCCCC1=Cc2ccccc2C(C(C(C)=O)C(=O)OC)N1C(=O)OC", "note": "(stereo unspecified)", "activity, negative = inhibition": "inactive: -6.98% [at 13.5 µM]"}, {"smiles": "CCn1c2ccccc2c2cc(NC(=O)CSc3nccc(=O)[nH]3)ccc21", "Potency": "inconclusive: 39.8 µM [inhibitor, single point]"}, {"smiles": "CCC(C)NC(=O)Cn1c(=O)n(CCCCC(=O)NCc2ccco2)c(=O)c2ccccc21", "note": "(stereo unspecified)", "Potency": "inactive"}, {"smiles": "Cc1ccc(-n2nnnc2-c2ccco2)cc1", "Potency": "inconclusive: 39.8 µM [inhibitor, single point]"}, {"smiles": "O=C(/C=C/c1ccco1)Nc1ccc(-c2nc3ccccc3[nH]2)cc1", "Potency": "inactive"}, {"smiles": "COC(=O)c1ccc(N/N=C/c2cc([N+](=O)[O-])cc(OC)c2O)cc1", "Potency": "inactive"}, {"smiles": "Cn1nc(C(=O)NCc2ccccn2)c2ccccc2c1=O", "Potency": "inconclusive: 39.8 µM [inhibitor, single point]"}, {"smiles": "CC(=O)NS(=O)(=O)c1cccnc1Nc1cccc(Cl)c1", "Potency": "inconclusive: 39.8 µM [inhibitor, single point]"}, {"smiles": "Cc1cc(/C=N/NC(=O)C(O)(c2ccccc2)c2ccccc2)c(C)n1-c1ccc(C(=O)O)cc1", "Potency": "inconclusive: 25.1 µM [inhibitor, single point]"}, {"smiles": "COc1cccc(-c2ccc3ncnc(NC4CC4)c3c2)c1", "Potency": "inconclusive: 17.8 µM [inhibitor, partial curve]"}, {"smiles": "O=C(N/N=C/c1oc(O)c2ccccc12)c1ccccc1", "Potency": "inconclusive: 37.7 µM [inhibitor, single point]"}, {"smiles": "O=C(COc1ccccc1C(=O)Nc1ccccc1)NCCc1ccccc1", "Potency": "inconclusive: 39.8 µM [inhibitor, single point]"}, {"smiles": "Cc1cccc(N2NC(=O)/C(=C/c3ccc(-c4ccc(Cl)c(C(=O)O)c4)o3)C2=O)c1", "Potency": "inconclusive: 2.99 µM [inhibitor, full curve]"}, {"smiles": "COC(=O)c1ccc(C(=S)N2CCOCC2)cc1", "Potency": "active: 10 µM"}, {"smiles": "COC(=O)[C@H]1[C@H]2C[C@@H]3c4[nH]c5cc(OC)ccc5c4CCN3C[C@H]2C[C@@H](OC(=O)c2cc(OC)c(OC)c(OC)c2)[C@@H]1OC", "Potency": "inconclusive: 39.8 µM [inhibitor, partial curve] and inconclusive: 20 µM [inhibitor, partial curve]"}, {"smiles": "Cc1nc(C(=O)Nc2cc(Cl)ccc2Cl)nn1-c1cc(OC(C)C)c(Cl)cc1Cl", "Potency": "inconclusive: 35.5 µM [inhibitor, single point]"}, {"smiles": "CCN(CC)CCCNC(=O)Cn1cnc2sc(C)c(S(=O)(=O)N3CCN(c4ncccn4)CC3)c2c1=O", "Potency": "inactive"}, {"smiles": "NC(=O)c1ccc(N=Cc2ccc([N+](=O)[O-])s2)cc1", "Potency": "active: 20 µM"}, {"smiles": "C=CCN1C(=O)C(CC(=O)Nc2ccc(OC)cc2)SC1=Nc1ccc(S(N)(=O)=O)cc1", "note": "(stereo unspecified)", "Potency": "active: 7.94 µM"}]}]}
